The values below come from ChEMBL document CHEMBL4888484, “Replenishing the malaria drug discovery pipeline: Screening and hit evaluation of the MMV Hit Generation Library 1 (HGL1) against asexual blood stage Plasmodium falciparum ,using a nano luciferase reporter read-out” (2022).

About 540 (0.36%) of roughly 150,000 compounds showed an effect of 50% or more. The list shows a part of the results.

The assay deals with Plasmodium falciparum. Kind of assay: Primary screen in NF54 nanoGlo assay, in single point, at 2uM, 72h; a lower Z score goes with more inhibition. The note with it: timepoint 72 hour. It is filed as functional, Erythrocyte.
As to `Cc1cc(C)c(C(=O)N2CC(S(=O)(=O)Cc3ccco3)C2)c(C)c1`, the “% Inhibition” value is reported as -15% and the Z score is given as 1.92.
For `CN(CCCNc1ccccc1)C(=O)c1ccc(Cl)cn1`, the “% Inhibition” value stood at 3% and the Z score is -0.41.
In the same order, the values of `CCC(C)c1csc(NC(=O)NC(C)c2cnn(C)c2)n1` (stereo unspecified) are -1% and 0.21.
In the same order, the values of `COc1cc(C(=O)Nc2ccc(OCc3ccccc3)cc2)c2[nH]ncc2c1` are -4% and 0.55.
On to `CC(C)Cc1nc(CN(C)c2nc(N(C)C)nc3c2CCNC3)no1`, for which the “% Inhibition” value was -7% and the Z score was determined as 1.06.
As for `CC(C)C(=O)Nc1cc(C(=O)OC[C@H]2CCCCO2)c(F)cc1F`, the “% Inhibition” value came to 29% and the Z score was -3.92.
For `CC(=O)c1cccc(CN(CCN2CCCCC2)C[C@H]2CCCN(C3CCCC3)C2)c1`, in that order: -6% and 1.1.
Consider `COC(=O)C1(N(C)Cc2nnsc2Cl)CCCCC1`, for which the “% Inhibition” value was -9% and the Z score is given as 1.38.
For `Cc1cc(C)n(-c2ccnc(N3CCN(c4ccc(F)cc4)CC3)n2)n1`, in that order: -10% and 1.08.
On to `CC12CC(c3ccccc3O1)C(C(N)=O)C(=O)N2CCCn1ccc2ccc(Cl)cc21` (stereo unspecified), for which the “% Inhibition” value is -13% and the Z score was found to be 2.09.
Consider `CCCn1cc(NC2CCC3(CC2)OCCO3)cn1`, for which the “% Inhibition” value is reported as -9% and the Z score stood at 1.21.
In the same order, the values of `Cc1n[nH]c([C@H]2CCN(Cc3ccc(F)cc3F)C[C@H]2NC(=O)C2CCOCC2)n1` are -9% and 1.19.
In the same order, the values of `Cc1noc(C)c1CC(=O)N1C[C@H](C)NC(=O)c2ccccc21` are -14% and 1.38.
Take `O=C(Cn1ccc(C(F)(F)F)n1)N1CCCC1`: the “% Inhibition” value is -15% and the Z score worked out at 2.9.
Consider `CC1(C)C[C@@H](c2nccn2CCc2c[nH]c(=O)[nH]c2=O)CCO1`, for which the “% Inhibition” value was 16% and the Z score was -2.85.
For `O=C(CN1CCCCCC1=O)N1CCCC1`, in that order: -1% and 0.12.
In the case of `O=C(Nc1ccccc1OCc1cccc(Cl)c1)[C@H]1CCNC1`, the “% Inhibition” value came out at 2% and the Z score was -0.25.
In the same order, the values of `CC[C@@H](CO)NC(=O)Nc1ccc(Cl)cc1` are 35% and -0.64.
In the same order, the values of `Cn1nc(C(=O)Nc2cc(-c3ccccc3)ns2)ccc1=O` are 12% and -2.32.
For `CC(=O)N[C@H](CC1CCC1)C(=O)N1CCN(C2CCC2)CC1`, in that order: -4% and 0.67.
For `O=C1NCc2ccc(NCC3CC4CCC3O4)cc21` (stereo unspecified), the “% Inhibition” value is -12% and the Z score turned out to be 1.25.
As to `Cc1nc(N2CCOC[C@](O)(CN3CCCC3)C2)c2ccsc2n1`, the “% Inhibition” value is -1% and the Z score is given as 0.11.
In the same order, the values of `N#Cc1ccc(CN2C[C@@H]3C[C@H]2C(=O)N2CCO[C@H](CN(Cc4ccc(F)c(F)c4)C[C@H]4O[C@@H](CC(=O)N3)[C@H](O)[C@@H]4O)C2)cc1` are 14% and -1.63.
In the same order, the values of `CCc1csc(NCc2nocc2C)n1` are -16% and 3.06.
For `COC[C@H]1CCCN1C(=O)CCCc1cn[nH]c1`, in that order: 3% and -0.41.
For `CCOc1cccc2c1OC[C@@H](C(=O)N1CCCS1(=O)=O)C2`, the “% Inhibition” value is listed as -7% and the Z score is 1.2.
For `COc1ccnc(CNC(=O)[C@H]2C[C@@H]2c2ccccc2)n1`, in that order: 3% and -0.46.
Take `Cn1cc(-c2ccccc2)c(NC(=O)NCCC(=O)Nc2ccccc2)n1`: the “% Inhibition” value is recorded as -15% and the Z score was 1.48.
As for `Cc1cc2c(cc1C)C(NC1CCC(=O)NC1)CCCO2` (stereo unspecified), the “% Inhibition” value is -9% and the Z score is listed as 0.83.
In the same order, the values of `Fc1ccc(-c2cc(-c3ccccc3)c3c(n2)-c2cc(F)ccc2OC3)cc1` are -6% and 0.7.
Regarding `Cn1c(=O)c2c(nc3n2CC(=O)N3c2ccccc2F)n(C)c1=O`, the “% Inhibition” value is given as -23% and the Z score was determined as 2.43.
For `CC1(CO)CN(C(=O)COc2ccc(OCc3ccccc3)cc2)C1`, the “% Inhibition” value is given as -1% and the Z score is given as 0.13.
As for `Cc1cc(C(=O)N(C)C[C@H]2Cc3ccccc3CO2)c(C)o1`, the “% Inhibition” value stood at 2% and the Z score is recorded as -0.27.
In the same order, the values of `O=C(NC(CC1CCOCC1)c1ccccc1)N1CCC[C@H]1CO` (stereo partly specified) are -4% and 0.44.
Take `COc1ncc(NC(=O)c2c(F)cccc2Cl)cn1`: the “% Inhibition” value came to 5% and the Z score is recorded as -0.6.
On to `c1cc(CNC2CCCCCCC2)on1`, for which the “% Inhibition” value is on record as -12% and the Z score is listed as 1.4.
On to `CC(C)c1nc(Cn2ccnc2-c2cccc3cnccc23)cs1`, for which the “% Inhibition” value was -6% and the Z score is given as 0.87.
In the same order, the values of `Cc1nnc(CS(=O)(=O)[C@@H](C)c2ccccc2Cl)n1C1CC1` are -1% and 0.21.
For `COc1ccc2c(c1)[C@@H](NCc1ccccc1)CCO2`, in that order: -5% and 0.65.
For the compound `c1cnc(NCc2cnc(N3CCCC3)s2)cn1`, the “% Inhibition” value is listed as -3% and the Z score is on record as 0.38.
For the compound `OCC[C@H]1CN(Cc2ccc3c(c2)OCCO3)CCN1Cc1cccs1`, the “% Inhibition” value is given as -9% and the Z score was found to be 1.63.
Consider `c1ccc2c(c1)OC[C@@H](c1noc(C3(n4cnnn4)CC3)n1)O2`, for which the “% Inhibition” value is -7% and the Z score stood at 1.39.
As to `Cc1c(C2CCN(S(=O)(=O)c3ccc(C(C)C)cc3)CC2)c2ccccc2n1Cc1ccc(F)cc1`, the “% Inhibition” value was -7% and the Z score was 0.95.
